Results are given in words; binding and its absence hold for the method and conditions named. In cells and extracts the contact can be indirect. Some entries that bind do so weakly or less than the wild type.
Columns and labels:
Assay in all cases: FRET or BRET; acceptor photobleaching FRET in transfected, fixed and immunostained CHO-K1 cells; donor EGFP, acceptor Alexa Fluor 555
[1] = biological target: T1, human TMC2 (FRET, CHO-K1 cells) (human) (UniProt Q8TDI7)
T1 sequence: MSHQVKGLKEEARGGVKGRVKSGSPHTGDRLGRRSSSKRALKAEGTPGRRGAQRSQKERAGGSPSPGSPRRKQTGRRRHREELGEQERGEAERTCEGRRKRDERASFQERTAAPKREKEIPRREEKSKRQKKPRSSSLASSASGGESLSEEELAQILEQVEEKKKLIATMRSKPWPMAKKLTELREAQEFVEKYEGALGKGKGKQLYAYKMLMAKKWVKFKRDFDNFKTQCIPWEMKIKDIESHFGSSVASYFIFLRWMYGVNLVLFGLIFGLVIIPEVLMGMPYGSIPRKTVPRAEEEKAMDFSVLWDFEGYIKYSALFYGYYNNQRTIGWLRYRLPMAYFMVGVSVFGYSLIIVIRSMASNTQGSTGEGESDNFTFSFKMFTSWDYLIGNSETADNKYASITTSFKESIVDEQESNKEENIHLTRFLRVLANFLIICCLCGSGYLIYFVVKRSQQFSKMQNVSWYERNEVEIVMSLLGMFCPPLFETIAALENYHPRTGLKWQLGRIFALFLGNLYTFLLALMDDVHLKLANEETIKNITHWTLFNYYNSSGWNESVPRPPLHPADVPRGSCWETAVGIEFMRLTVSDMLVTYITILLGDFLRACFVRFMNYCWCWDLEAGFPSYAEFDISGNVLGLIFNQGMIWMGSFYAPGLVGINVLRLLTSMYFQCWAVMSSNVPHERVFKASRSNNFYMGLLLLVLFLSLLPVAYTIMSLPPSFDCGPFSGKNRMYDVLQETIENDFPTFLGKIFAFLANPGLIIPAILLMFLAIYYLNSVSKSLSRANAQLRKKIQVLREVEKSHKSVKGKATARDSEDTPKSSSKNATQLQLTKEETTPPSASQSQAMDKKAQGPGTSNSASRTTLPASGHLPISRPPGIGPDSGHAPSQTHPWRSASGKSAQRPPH

Protein sequences, listed by entry. Tags and fused reporters are not part of them. Lines headed by an entry give the natural chain unless they say otherwise; changes in a name come on top. Chains listed by the source or under a name are the forms on record and can include a tag or linker.
UniProt Q8TDI8: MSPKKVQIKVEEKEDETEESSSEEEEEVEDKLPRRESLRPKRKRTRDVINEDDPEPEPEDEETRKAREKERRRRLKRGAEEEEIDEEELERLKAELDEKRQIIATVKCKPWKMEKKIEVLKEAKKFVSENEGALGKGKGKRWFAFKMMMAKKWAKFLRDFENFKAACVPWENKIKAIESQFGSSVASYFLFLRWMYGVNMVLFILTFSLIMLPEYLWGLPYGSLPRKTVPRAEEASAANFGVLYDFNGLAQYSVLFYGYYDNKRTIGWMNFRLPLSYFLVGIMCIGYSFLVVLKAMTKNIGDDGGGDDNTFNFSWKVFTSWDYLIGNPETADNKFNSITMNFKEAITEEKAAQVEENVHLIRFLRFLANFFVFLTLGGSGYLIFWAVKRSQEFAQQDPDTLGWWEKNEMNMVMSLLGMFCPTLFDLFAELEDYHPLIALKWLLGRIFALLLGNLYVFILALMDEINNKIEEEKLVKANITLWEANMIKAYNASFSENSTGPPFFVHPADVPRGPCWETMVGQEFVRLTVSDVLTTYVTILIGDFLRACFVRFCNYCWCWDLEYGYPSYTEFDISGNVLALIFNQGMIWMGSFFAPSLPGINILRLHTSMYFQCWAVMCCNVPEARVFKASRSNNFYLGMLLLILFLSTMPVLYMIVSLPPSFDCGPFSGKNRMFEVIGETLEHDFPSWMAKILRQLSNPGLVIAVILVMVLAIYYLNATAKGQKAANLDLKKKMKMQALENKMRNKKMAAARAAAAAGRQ
human TMC1 Δ77–86 (FRET, CHO-K1 cells) (Q8TDI8, form named): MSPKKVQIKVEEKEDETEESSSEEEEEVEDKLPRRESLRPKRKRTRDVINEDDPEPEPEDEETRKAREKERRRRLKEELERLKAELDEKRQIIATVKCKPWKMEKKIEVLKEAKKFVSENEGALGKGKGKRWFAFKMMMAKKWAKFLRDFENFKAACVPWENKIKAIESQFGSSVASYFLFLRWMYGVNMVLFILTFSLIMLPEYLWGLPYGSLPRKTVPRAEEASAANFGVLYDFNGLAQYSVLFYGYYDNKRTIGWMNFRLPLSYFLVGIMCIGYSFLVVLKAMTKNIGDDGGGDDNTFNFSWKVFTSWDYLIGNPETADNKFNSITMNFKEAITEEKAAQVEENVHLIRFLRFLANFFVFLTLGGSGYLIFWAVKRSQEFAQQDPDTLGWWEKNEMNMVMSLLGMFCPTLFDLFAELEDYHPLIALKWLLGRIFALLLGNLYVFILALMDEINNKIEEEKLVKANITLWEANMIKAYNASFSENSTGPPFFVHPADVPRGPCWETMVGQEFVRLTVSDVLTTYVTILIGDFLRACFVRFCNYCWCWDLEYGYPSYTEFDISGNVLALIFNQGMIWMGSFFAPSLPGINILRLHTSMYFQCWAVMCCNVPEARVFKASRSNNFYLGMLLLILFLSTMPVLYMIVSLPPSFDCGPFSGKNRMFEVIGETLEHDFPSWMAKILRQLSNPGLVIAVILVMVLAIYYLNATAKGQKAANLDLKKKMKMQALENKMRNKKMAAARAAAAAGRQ
UniProt O75838: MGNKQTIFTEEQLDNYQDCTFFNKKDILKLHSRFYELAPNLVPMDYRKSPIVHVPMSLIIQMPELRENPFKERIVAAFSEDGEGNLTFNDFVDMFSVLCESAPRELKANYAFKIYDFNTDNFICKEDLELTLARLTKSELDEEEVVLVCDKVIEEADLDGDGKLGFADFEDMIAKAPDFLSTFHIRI

[2] = biological target: human TMC1 (FRET, CHO-K1 cells) (human) (UniProt Q8TDI8)
[3] = biological target: human TMC1 Δ77–86 (FRET, CHO-K1 cells) (human) (UniProt Q8TDI8)

Measured: binding

human CIB2 (FRET, CHO-K1 cells) (from UniProt O75838 1-187)
binds: all assays above

From paper PMC7343241
